Some of the results follow.
T1: UNK ZnF1-3 (human, UniProt Q9C0B0 31-174)
T1 sequence: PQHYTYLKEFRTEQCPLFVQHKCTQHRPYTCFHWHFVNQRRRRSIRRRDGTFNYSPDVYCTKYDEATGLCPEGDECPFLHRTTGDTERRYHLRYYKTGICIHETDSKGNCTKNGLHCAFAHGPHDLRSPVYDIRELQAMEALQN

B1: 96404384_96404504_4670_3pUTR_ENSMUSG00000023169_ENSMUST00000088452|mouse|control|control (ssRNA)
RNA: GGGAGUUCUACAGUCCGACGAUCCUCCAUUACAGCUCCACAUUCUUUUCCAGCUGCCUGGGGGCCUAACCCCCACAUCUAAUCCAAUGAAGAAAAAUCCAUUCCGGGUUACAGAGCUUUGGAAUAUGGUCUCCCUGUGACCAGCAACAGAGGAUUGAGCAUCA
B2: chr4:120755967:120755968:-_ENSMUSG00000043207_ENSMUST00000058754|mus_hu|FALSE|FALSE (ssRNA)
RNA: GGGAGUUCUACAGUCCGACGAUCGAUUGCAUCUUUCAUGAAGAACCCCAAAGUCUGUUGAUUGAAGCCAUGUUUUUCUUCUAUCACAAAAGUAUUAUAAAGACUCCAUGGCAAACCAGUCAAUGCACUGAAAAGUGUAGCCAACAACAGAGGAUUGAGCAUCA
B3: chr4:76721835:76721836:+_ENSG00000138768_ENST00000264904|hu_mus|hu_hu_hu_mus_True|38_48 (ssRNA)
RNA: GGGAGUUCUACAGUCCGACGAUCGUUUGGCUGGGGUUUCUGAGACGCUCUGGAAUAUAACUCAUGUUUGCUAAUAAAUCCUAGUUUUCUAUGAAAUUCUCUUUGCCCAAUCCUCUUCUCUAUUAGUUGCUUUAGUUUCUCUUUCAACAGAGGAUUGAGCAUCA
B4: chr13:100192331:100192332:-_ENSMUSG00000052727_ENSMUST00000064762|mus_hu|motif|central (ssRNA)
RNA: GGGAGUUCUACAGUCCGACGAUCGCAAAUGAUUAAAUCUUAAUUAAAUGAGUAUUGGAAAGCUCCUAGACUGCAUAAGCGGUUGGAGACACUUAAAACAUUCAUAUACACUGGGGAAACCAUUCACUAUGAUAUGUAACGUUACAACAGAGGAUUGAGCAUCA
B5: 129337241_129337361_1839_3pUTR_ENSMUSG00000041220_ENSMUST00000071402|mouse|control|control (ssRNA)
RNA: GGGAGUUCUACAGUCCGACGAUCGGGCUGGCAUUUGUUACACAUGGUACAAGACUCCAUUUUCAAGCCAGCCAGCUGAGCUUCUUCCCUUUCAGUUCUGCAUUUACUCCUCCGUCCUAAAGUUUGGGGCAACUGAACAACGGACAACAGAGGAUUGAGCAUCA
B6: chr2:168013125:168013126:-_ENSMUSG00000051149_ENSMUST00000088001|mus_hu|FALSE|FALSE (ssRNA)
RNA: GGGAGUUCUACAGUCCGACGAUCCUCCCAUGUAGUGUUUUUCAAAUAAAAGUCAUUAGGUUCAAAUUGUUUAAAAUCUUCUAUAUGUUCUUUACAGUAUUCCAACCCAAUGUCACUAAGUAUUUUUUUCACAGUUUUCCGGGCCAACAGAGGAUUGAGCAUCA
B7: chr2:149803492:149803493:+_ENSG00000168280_ENST00000414838|hu_hu|FALSE|FALSE (ssRNA)
RNA: GGGAGUUCUACAGUCCGACGAUCAGUUUUGCUGACCUUUUCGCUCCCAGCCAAAUCAACCAAAUAAAGUUUCCCACUGAGUUUUUUUUCAGUCUCUACAUUCUCUUGUUUAAUAUUUAUCAGGAAGAUACUGUGACUUCUAGACAACAGAGGAUUGAGCAUCA
B8: chr2:31460152:31460153:+_ENSMUSG00000026843_ENSMUST00000055244|mus_mus|FALSE|FALSE (ssRNA)
RNA: GGGAGUUCUACAGUCCGACGAUCGUUCUGGAUCUUCUUAAUCAUUUCUCCGUUCCUUCCUAUGACAAUCCCAACAACAAACCUAGGCACAGACACCUCUAUACUACCUCCGCCUGCUCGGGAGGUGAAAUCGCUGCGCACACCCAACAGAGGAUUGAGCAUCA
B9: chr22:19452774:19452775:-_ENSG00000070010_ENST00000399523|hu_hu|hu_hu_hu_mus_False|8_88 (ssRNA)
RNA: GGGAGUUCUACAGUCCGACGAUCCUUCUCAUUGUAGUUGAUAGCAAUCACAUCCCCAGUCGUCAGACAGGCGAAGUUUCUCAAUGCAUUUUCUAAUACCGCUUUAGGGUUGGUAAUAUCCAGGAAGUCAGGGCUCUGAGGCUGCAACAGAGGAUUGAGCAUCA
B10: chr7:54823571:54823572:-_ENSG00000132432_ENST00000352861|hu_mus|hu_hu_hu_mus_False|58_88 (ssRNA)
RNA: GGGAGUUCUACAGUCCGACGAUCUCCCAUGAUAGCAAAUCCUAUAGCUGUUGCCAUGGCAAUCUUCUGGAAUUCUUUUCUAUCAGGUUUGGUGCAUCUUUUAACCAGCCGAAUUGAGUCCUUUACAAACUGCCGGCUGGGCUCCAACAGAGGAUUGAGCAUCA
B11: chr17:60770872:60770873:+_ENSG00000011028_ENST00000303375|hu_mus|motif|central (ssRNA)
RNA: GGGAGUUCUACAGUCCGACGAUCUCUUUAAAAAAAAAAAAAAAAAGACAAACAAUAAUAGCACAUUUCGAGAAUCAAGAACGGCAAUAGAGGGUCCGCUUUGAGUUUUUGUUCACAUCGUCCUGCACUGGGACACGGGGACUGCAACAGAGGAUUGAGCAUCA
B12: chr8:100899844:100899845:-_ENSG00000164919_ENST00000517682|hu_hu|motif|central (ssRNA)
RNA: GGGAGUUCUACAGUCCGACGAUCUUGAUCAGCCACACGAAACUUAUACAAAGCUGCAACCCCCAGGGAUAGCACGAAUGCGGCAGCCAUAUGAUUUCGCAGACGCCUGGCCAGAAGGCCACGCAUCCGAGGUUUUGGCAAAACCAACAGAGGAUUGAGCAUCA
B13: chr2:32530670:32530671:+_ENSG00000119820_ENST00000437765|hu_mus|FALSE|FALSE (ssRNA)
RNA: GGGAGUUCUACAGUCCGACGAUCCUCCAAUCCCUCCAGCAAGAAUUCCCAGCGUAAUACAAAUGUAACACCAUCUUUUUGAUUCAUGUACAACUUGGAUCACACUCCAGUAUAUAAGGACAAAAAAUAAAUGUACAAUAAAAACAACAGAGGAUUGAGCAUCA
B14: 87970343_87970463_7099_CDS_ENSG00000188994_ENST00000369577|human|control|control (ssRNA)
RNA: GGGAGUUCUACAGUCCGACGAUCAUUUCUAGCCUUUAUAGAAUAUACAUGCUUCCCACGUUUCAGAGAAUAAGGCUUAUUUUCUUCAAUCUGCACAAUCUUUGCAUUCUUGUUUUCUAAAUUAUUUUUUUUCUUUCGUUUGGUCAACAGAGGAUUGAGCAUCA
B15: chr11:29608638:29608639:+_ENSMUSG00000020458_ENSMUST00000102843|mus_mus|motif|central (ssRNA)
RNA: GGGAGUUCUACAGUCCGACGAUCAAGUUUUUCCUCUGCUUCUUUCGUAAGUACUUUGGGUUUAACUAUGUUGCCCAUUUCGGUUUGAGAUUCCAAAGCAGAAACAUUUGGAAGCAAUAAGGGCACCUUAGAUACACUGGACCUCAACAGAGGAUUGAGCAUCA
B16: chr1:187193504:187193505:+_ENSMUSG00000026615_ENSMUST00000046514|mus_mus|FALSE|FALSE (ssRNA)
RNA: GGGAGUUCUACAGUCCGACGAUCAUCAAUCUCAGUGUGCUCCAUCAGGUUAGUCCCAUACAGCCCAGACGUAGUUGCAAUUCUAGCCAGGUAGCGCAGGAUUGAAUUCACGUCAGUGAAUGCCACAGUCUCAGAAACCCGAAGCAACAGAGGAUUGAGCAUCA
B17: chr1:39494564:39494565:+_ENSG00000168653_ENST00000372967|hu_hu|hu_hu_hu_mus_True|1_68 (ssRNA)
RNA: GGGAGUUCUACAGUCCGACGAUCAUGCAUUCGCCUCAUCGUUUUGUACCGAAGCAAGCACUCUUCGAAAUCAUCAUACUCUAUCUUGCACUCCUUUUUCGCCCGGGUCCCACCGAUCCCGUGUGCACACUCUAUCCAUUCUUUCAACAGAGGAUUGAGCAUCA
B18: 57685957_57686077_494_CDS_ENSMUSG00000054843_ENSMUST00000077282|mouse|control|control (ssRNA)
RNA: GGGAGUUCUACAGUCCGACGAUCGCAGGUGGAGUUGACACAGCGACCGGAGAAGCAGGAGCCAGUCCUCUCGCAGGGCUUGGACUGGGACACCUGAGCAUAGAGCGCCAGGUAGAGGAAGCCAUAGCACAGCAGCCAGCUGUUCAACAGAGGAUUGAGCAUCA
B19: chr2:202488911:202488912:-_ENSG00000155755_ENST00000286196|hu_mus|hu_hu_hu_mus_False|1_98 (ssRNA)
RNA: GGGAGUUCUACAGUCCGACGAUCAUUGAAACAUUUUCAUAAUAUUGCAGUAGCAUUUCAGCAUUAUGUAACAAAAGCUCAAUUGUAAAUACAUGUAUCUUAUAAAAAUACACUUAAAAACACGAGUGGGGAGCGCACAAAUACCAACAGAGGAUUGAGCAUCA
B20: chr4:57314706:57314707:+_ENSG00000128050_ENST00000264221|hu_mus|hu_hu_hu_mus_True|38_48 (ssRNA)
RNA: GGGAGUUCUACAGUCCGACGAUCCAGAAUUUCAAAAAUAGCUUGUGUGGCAUGACUCAUGAUGUCCACUUCAGUCUGCCCUAUAACAAGUCCAGCAAAGCAAAAUUUUGCAGCAAUGAGUUGCUCCUCAGACCACUGUGGAUCCAACAGAGGAUUGAGCAUCA
B21: chr7:125879632:125879633:+_ENSMUSG00000033904_ENSMUST00000106557|mus_mus|motif|central (ssRNA)
RNA: GGGAGUUCUACAGUCCGACGAUCUAUUACUAUGUUCUCUGAGAUCCGGAUUGCUUAUUAAAUAGCCCUUUAUUCUCUCCGGUGUAAAGCAUGCUAGAAAAAGAAGACUGAAAAAACAAACAAUAUAGACUAACUAGAACUAGCCAACAGAGGAUUGAGCAUCA
B22: chr2:15737528:15737529:+_ENSG00000079785_ENST00000233084|hu_hu|FALSE|FALSE (ssRNA)
RNA: GGGAGUUCUACAGUCCGACGAUCUUUAAUUGUUGUUUUUCCUUUUUUGCCUUCCUGUUGGUCUUUCAGAGUUUCAUAAACUAUCUGGAUAACUGGAAUACUAAAAGCACCAGUUUUGCCACUUCCUGUUUCUGCAGCCAUAAGCAACAGAGGAUUGAGCAUCA

biological target: T1, UNK ZnF1-3; assay: nsRBNS (natural sequence RNA bind-n-seq); RBNS binding buffer (assumed for nsRBNS): 25 mM Tris pH 7.5, 150 mM KCl, 3 mM MgCl2, 0.01% Triton X-100, 500 ug/ml BSA, 20 U/ml SUPERase-In, 4 C; UNK is unkempt and MSI1 is Musashi-1; names of the RNAs are library labels; protein concentration not given here; high values mean tight binding

Binder	binding signal [enrichment R]
B1	1.01
B2	1.33
B3	0.582
B4	1.23
B5	0.894
B6	0.831
B7	1.02
B8	0.985
B9	0.905
B10	0.737
B11	2.88
B12	1.26
B13	2.48
B14	0.634
B15	0.647
B16	0.933
B17	0.768
B18	1.56
B19	1.04
B20	1.05
B21	1.58
B22	0.539

Reference: publication PMC12136788
